In all, about 110,000 compounds were measured (“z-score”: median about -0.1, highest 2% from about 2 on). The list shows a part of the results. Active and inactive are the calls of the source.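 The calls were made as follows: active = z-score in the third read window above 3 or below -3; inactive = the rest.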
What follows are molecules tested against Metabotropic glutamate receptor 8 (Rattus norvegicus) (UniProt P70579) (assay: rat mGluR8 modulators via GIRK flux, primary screen, cell-based, thallium flux, HTS (AID 488969)). Settings: HEK293 rat mGluR8, GIRK (G protein-gated inwardly rectifying potassium channel) thallium flux, FluoZin2; at 10 µM; stronger effect = higher value; submaximal glutamate (EC20) added with thallium.
UniProt P70579, sequence (P70579 whole entry, looked up): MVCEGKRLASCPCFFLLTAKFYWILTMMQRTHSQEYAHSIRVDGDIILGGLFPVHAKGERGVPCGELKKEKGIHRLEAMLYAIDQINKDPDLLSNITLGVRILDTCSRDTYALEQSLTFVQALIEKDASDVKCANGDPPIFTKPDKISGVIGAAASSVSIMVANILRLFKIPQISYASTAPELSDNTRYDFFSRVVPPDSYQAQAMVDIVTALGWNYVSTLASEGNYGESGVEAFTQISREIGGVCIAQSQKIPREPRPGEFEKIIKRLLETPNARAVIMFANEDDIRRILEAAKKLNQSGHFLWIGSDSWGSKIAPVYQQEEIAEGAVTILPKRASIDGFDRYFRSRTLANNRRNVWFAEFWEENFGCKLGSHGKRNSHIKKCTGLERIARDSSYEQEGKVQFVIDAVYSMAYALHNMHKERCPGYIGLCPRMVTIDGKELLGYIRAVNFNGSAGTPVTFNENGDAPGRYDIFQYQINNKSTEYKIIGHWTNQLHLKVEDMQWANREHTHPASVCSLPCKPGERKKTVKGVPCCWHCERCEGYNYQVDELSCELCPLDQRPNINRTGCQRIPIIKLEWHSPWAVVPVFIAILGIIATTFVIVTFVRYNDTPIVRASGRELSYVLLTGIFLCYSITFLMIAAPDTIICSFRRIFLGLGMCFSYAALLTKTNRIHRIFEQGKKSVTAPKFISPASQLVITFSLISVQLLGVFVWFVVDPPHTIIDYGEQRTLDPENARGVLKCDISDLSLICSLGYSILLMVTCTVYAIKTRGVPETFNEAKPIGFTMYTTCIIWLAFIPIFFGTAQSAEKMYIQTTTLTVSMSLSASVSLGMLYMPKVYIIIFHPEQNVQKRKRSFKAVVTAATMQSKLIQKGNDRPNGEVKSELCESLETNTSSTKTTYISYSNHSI

SMILES	z-score
O=c1[nH]c(CN2CCN(c3ccccc3O)CC2)nc2ccccc12	-0.0786
O=C(Nc1nc2ccc(S(=O)(=O)N3CCCC3)cc2s1)c1ccco1	-0.299
N#Cc1ccccc1CSc1ccccn1	0.253
COc1cccc(NC(=O)CN2C(=O)COc3ccc(Cl)cc32)c1	0.129
CCOC(=O)C1CCCN(C(=O)/C=C/c2ccc([N+](=O)[O-])cc2)C1 (configuration not stated)	-0.161
COc1ccc(-n2cnnc2SCC(=O)Nc2cc(S(=O)(=O)N3CCCCC3)ccc2C)cc1	0.371
CCOC(=O)c1ccccc1Cc1nc2ccccc2c(=O)[nH]1	-0.605
C=CCn1c(COc2ccc(F)cc2)nnc1SCC(=O)c1c[nH]c2c(CC)cccc12	-0.748
O=C(Nc1ccccc1C(=O)N1CCN(c2ccccc2)CC1)c1ccco1	-0.223
Cc1ccc(S(=O)(=O)Cn2nnnc2CN(Cc2ccco2)Cc2cccs2)cc1	0.0681
CCOC(=O)Cc1csc(NC(=O)C2C3C=CC(C3)C2C(=O)O)n1 (configuration not stated)	-0.0933
COC(=O)C1C(=O)C2=C(CC1C)NC(=O)CC2c1ccccc1 (configuration not stated)	-0.113
Cc1ccc(/C=C/C(=O)O)cc1S(=O)(=O)NCCCO	-0.00281
N#Cc1ccccc1NC(=O)CSc1nccn1CCc1ccccc1	-0.52
COCCn1c(C)cc(C(=O)CSc2nc(C)nc3sc4c(c23)CCC4)c1C	0.18
O=c1c(Cl)c(N2CCN(S(=O)(=O)c3ccccc3)CC2)cnn1-c1ccccc1	-0.079
Cc1c(CCO)c(=O)n(-c2ccccc2)n1S(=O)(=O)c1c(Cl)cc(Cl)cc1Cl	0.632
COC(=O)c1sccc1NC(=O)Cc1ccc(Br)cc1	-0.0914
CCOC(=O)C(C)N1C(=O)S/C(=C/c2cc(C)n(-c3ccccn3)c2C)C1=O (configuration not stated)	-0.364
O=C(OC1CCCCC1=O)c1cccc(S(=O)(=O)NCc2ccccc2)c1 (configuration not stated)	-0.182
CCOC(=O)c1nnn(-c2nonc2N)c1CN(CC)c1ccccc1	-0.502
COCCNC(=O)COc1ncnc2ccc(Br)cc12	-0.444

SMILES	z-score
CCN(C(=O)CSc1nnc(Cn2nnc3ccccc32)o1)c1nc(-c2ccccc2)cs1	-0.3
CN1CCN(C2=C(Cl)C(=O)N(CCc3ccccc3)C2=O)CC1	-0.0292
CCOC(CNC(=O)c1ccc(N2CCc3ccccc32)c([N+](=O)[O-])c1)OCC	-0.884
O=C(N/C=C/c1ccccc1)Nc1ccc(Cl)cc1	-0.132
Cc1oc2c(CN3CCCC3)c(O)ccc2c(=O)c1-c1ccccc1	0.23
COc1ccc(C(=O)c2ccc(OC)c(N)c2)cc1N	0.346
Cc1ccc(NC(=O)CSc2ccc(-c3ccc4c(c3)OCO4)nn2)cc1F	-0.264
O=S(=O)(/N=C(/c1ccccc1Cl)N1CCOCC1)c1ccccc1	0.284
COc1ccc(Br)cc1/C(C)=N/NC1=NCCN1	0.905
CC(/C=N/Nc1nc(N2CCCCC2)nc(N2CCCCC2)n1)=C\c1ccccc1	-0.494
Cn1c(C(=O)NCC2CCCO2)cc2c(=O)n3ccccc3nc21 (configuration not stated)	0.237
CC(C)n1nnc2ccccc2c1=O	-0.0751
O=C(NCc1ccc(Cl)cc1)c1ccc2nc[nH]c2c1	-0.237
CCCn1nnnc1SCC(=O)c1ccc2c(c1)OCCO2	0.105
O=C(Oc1cccc(/C=N/Nc2nc(Nc3ccccc3)nc(N3CCOCC3)n2)c1)c1ccco1	-0.146
C/C(=N/NC(=O)CNc1ccc(C)cc1)c1ccc(Br)s1	0.214
CCC(=O)Nc1ccc(C(=O)NNC(=O)c2cccs2)cc1	-0.0896
COC(=O)c1ccccc1NC(=O)C1CCCCC1C(=O)O (configuration not stated)	-0.474
O=C(CCCN1C(=O)c2ccccc2C1=O)N1CCN(c2ccccn2)CC1	0.451
CN=C(Nc1cc(C)nn1-c1ccccc1)c1ccccc1F	1.38
COc1cc(NC(=O)C2=C(N3CCOCC3)/C(=C/c3ccc(Cl)cc3)CC2)cc(OC)c1OC	-0.0934
Cc1ccc(C)c(NC(=O)c2sc(Cl)nc2-c2ccccc2)c1	-0.303

SMILES	z-score
CCOC(=O)c1cc(CC)sc1/N=C/C1C(=O)CC(C)(C)CC1=O	-0.586
CCN(CC(=O)N1CCCCCC1)S(=O)(=O)c1ccc(Cl)cc1	-0.404
CCCOP(=O)(c1ccc(N(C)C)cc1)C(O)c1ccccc1OC (configuration not stated)	-0.208
N#Cc1cccc(NC(=O)Cn2c3[n+](c4ccc(C(F)(F)F)cc42)CCCCC3)c1	0.176
CN(C)c1ccc(C=Nc2ccc(N(C)C)cc2)cc1	0.0134
CN1/C(=C\C=C2\N=C(c3ccc(F)cc3)OC2=O)C(C)(C)c2ccccc21	-0.211
CC1(C)CC(=O)c2cc(C(=O)NC3CCSC3=O)c(=O)n(-c3ccccc3)c2C1 (configuration not stated)	0.789
Cc1cc(C)cc(OCC(=O)Nc2ccc(N3CCN(C(=O)c4ccco4)CC3)cc2)c1	-0.15
CNC(=O)c1nnn(Cc2ccccc2)c1NC(=O)C(F)(F)F	-0.68
COc1cc(NC(=O)COC(=O)/C=C/c2c(C)nn(C3CCS(=O)(=O)C3)c2Cl)cc(OC)c1OC (configuration not stated)	-0.105
CCOc1ccc(NS(=O)(=O)c2ccc(NC(=S)NC(=O)CC(C)C)cc2)cc1	0.468
C=CCN(c1ccc(C(=O)N2CCCC2)cc1)S(C)(=O)=O	0.0827
N#C/C(C(=O)NCCc1ccccc1)=C1/N=C(NC(=O)c2cccs2)c2ccccc21	-0.118
O=C(NOC(=O)c1cc(Br)ccc1Cl)c1cccs1	0.635
CC(C)(C)c1ccc(C(=O)c2c[nH]c(C(=O)NCCCN3CCOCC3)c2)cc1	0.183
O=c1c2ccccc2nc(SCc2nnc(-c3ccccc3)o2)n1-c1ccc(F)cc1F	-0.56
CC(C)(C)c1ccc(S(=O)(=O)NCc2ccc(C(=O)NCc3ccccn3)cc2)cc1	-0.161
CCOC(=O)CNc1c(-c2ccc(OC)cc2)nc2ccc(Cl)cn12	-0.861
O=C(CCCSc1nc2ccccc2[nH]1)NCc1ccco1	-1.07
Cc1ccc(C2CC2C(=O)NNC(=S)Nc2cccc(C)c2)cc1 (configuration not stated)	active: 3.29
Cc1noc(N)c1C(=O)Nc1ccc(C(C)(C)C)cc1	-0.0712
O=C(Oc1c(Cl)cc(Cl)c2cccnc12)c1ccco1	active: 3.13

SMILES	z-score
O=C(Nc1nc2ccccc2s1)c1ccc(N2CCCCC2)c([N+](=O)[O-])c1	-0.00648
Cc1noc(COc2ccccc2OCc2onc(C)c2Cl)c1Cl	-0.126
CC(C)Cn1c(/C=C/c2ccco2)nc2ccccc21	-0.264
Cc1ccn2c(CN3CCOCC3)c(-c3ccccc3)nc2c1	-0.0116
COc1cc(CCC(=O)Nc2ccc(C)c(S(=O)(=O)N(C)C)c2)cc(OC)c1OC	-0.5
C/C(CC1CC2=C(CC1(C)C)C(C)(C)CCC2)=N\NC(N)=S (configuration not stated)	0.599
CC(=O)c1cc(C#N)c(SCC(=O)OC(C)C)nc1C	-0.466
CC1(C)CC(=O)C2=C(C1)N(c1ccccc1)C(N)=C(C#N)C2c1cccnc1 (configuration not stated)	-0.394
CCOCCn1c(CN2CCN(c3ccc(OC)cc3)CC2)nc2c1c(=O)n(C)c(=O)n2C	-0.366
C/C(=N\OC(=O)c1ccc(Br)cc1)c1ccccn1	0.167
COc1ccc(/C=N/Nc2nnc(Cc3ccc(OC)c(OC)c3)c(=O)[nH]2)cc1OC	-0.159
Cc1cc2c3c(c1)C1(C(=O)N3C(C)(C)CC2C)C(C#N)=C(N)OC2=C1C(=O)CC(C)(C)C2 (configuration not stated)	0.0667
Cc1cccc(-c2nc3ccccc3c(=O)n2NC(=O)c2cccnc2Cl)c1	-0.115
COC(=O)CN1C(c2ccccc2O)Nc2ccc(Br)cc2C1c1ccccc1 (configuration not stated)	-0.181
Cc1ccc(NC(=O)c2ccc(S(=O)(=O)N3CCC(C)CC3)cc2)cc1	-0.171
Cc1cccc(N/C(=N\S(=O)(=O)c2ccccc2)C(F)(F)F)c1	-0.178
CCOC(=O)N1CCC(N(CCN(C)C)C(=S)Nc2ccccc2C)CC1	-0.427
CCOC(=O)CC(=O)CSc1nc(N)c(C#N)c(-c2ccc(Cl)cc2)c1C#N	-0.118
CC(C)CN(C(=O)CN1CCN(c2ccccc2F)CC1)c1c(N)n(CC(C)C)c(=O)[nH]c1=O	-0.397
COc1ccc(OC)c(NC(=O)C2CCN(S(=O)(=O)c3c(C)noc3C)CC2)c1	-0.208
O=C(NCCc1nc2ccccc2[nH]1)/C(=C/c1ccc2c(c1)OCO2)NC(=O)c1ccc(Cl)cc1Cl	-0.517
Cc1cc(C(F)(F)F)c(C#N)c(SCC(=O)Nc2nc3cc(Br)ccc3s2)n1	-0.218

SMILES	z-score
CCNc1nc(NC(C)C)nc(Oc2ccc(OCc3ccccc3)nn2)n1	-0.842
COc1cccc(C(c2nnnn2Cc2ccco2)N2CCN(c3cccc(C)c3C)CC2)c1OC (configuration not stated)	-0.191
c1cc2c(cc1CN1CCOCC1)OCO2	-0.0852
CCCCn1c(Cc2ccccc2)n[nH]c1=S	0.576
CCOc1nc(-c2ccc(C)cc2)ccc1-c1noc(COC)n1	-0.156
CC(=O)N1CCN(S(=O)(=O)c2ccc(S(=O)(=O)NCC(C)C)cc2)CC1	-0.0339
CCOC(=O)C1=C(C)N=C2SCCC(=O)N2C1c1cccs1 (configuration not stated)	-0.357
CCCCCCCOc1ccc(OC(=O)c2cccnc2)cc1	0.168
COc1cccc(-n2c(SCC(=O)N3CCOCC3)nc3c([nH]c4ccccc43)c2=O)c1	0.788
CN(CC(=O)Nn1cnnc1)S(=O)(=O)c1cc(Cl)ccc1Cl	-0.476
CCCOc1ccc2c3c(c(=O)oc2c1OCCC)CCCC3	0.312
COc1cc2c(cc1NCc1ccccn1)oc1ccccc12	-0.0883
CC(NC(=O)c1cccs1)C(=O)NC1=NCCS1 (configuration not stated)	-0.526
COc1cccc(NC(=O)CN2CCN(c3ccc(F)cc3)CC2)c1	-1.23
CCOc1ccccc1-n1c(SCC(=O)N2CCCc3ccccc32)nnc1-c1cccnc1	-0.703
CCN(CC)c1nc(N)c([N+](=O)[O-])c(NCCO)n1	-0.415
Cc1ccc(NC(NC(=O)Cc2ccccc2)C(Cl)(Cl)Cl)cc1 (configuration not stated)	0.671
CCOC(=O)/C=C1\SCC(=O)N1Cc1ccc(Br)cc1	-0.326
COc1ccc(N2CCN(C(=O)c3ccc(CS(=O)(=O)c4ccc(OC)cc4)o3)CC2)cc1	-0.067
